# In the supplement of paper PMC12355420:
# Where a name gives a salt, the structure may show the parent alone. The list shows a part of the results. Many values rest on one well or one pass, so single values are uncertain.
# Test system: HeLa VPS33A reporter cells
# Assay: relative cell viability (CellMask signal) vs DMSO (fraction of DMSO); HeLa model of a glycosaminoglycan (GAG) storage disease; KI is knock-in and KO knock-out; SDC1 is syndecan 1; higher = less cytotoxic
# Settings: 50 µM; 24 h
# 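Further: primary screen of an FDA-approved drug library in HeLa reporter cells in 96-well format, CellMask signal normalized to DMSO-treated wells set as 1, under 0.5 deemed highly cytotoxic.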
row,SMILES,relative cell viability
1,CN1CCC(=C2c3ccccc3C=Cc3ccccc32)CC1 [Cyproheptadine hydrochloride],0.00509
2,CN1[C@@H]2CC[C@H]1C[C@@H](OC(c1ccccc1)c1ccccc1)C2 [Benztropine mesylate],0.0579
3,Clc1ccc(Nc2nnc(Cc3ccncc3)c3ccccc23)cc1 [Vatalanib (PTK787) 2HCl],0.0274
4,CC(C)C[C@H](NC(=O)[C@H](Cc1ccccc1)NC(=O)c1cnccn1)B(O)O [Bortezomib (PS-341)],0.0604
5,COc1ccc2cc1Oc1ccc(cc1)C[C@H]1c3cc(c(OC)cc3CCN1C)Oc1c(OC)c(OC)cc3c1[C@H](C2)N(C)CC3 [Tetrandrine],0.00834
6,"CO[C@H]1C[C@@H]2CC[C@@H](C)[C@@](O)(O2)C(=O)C(=O)N2CCCC[C@H]2C(=O)O[C@H]([C@H](C)C[C@@H]2CC[C@@H](OP(C)(C)=O)[C@H](OC)C2)CC(=O)[C@H](C)/C=C(\C)[C@@H](O)[C@@H](OC)C(=O)[C@H](C)C[C@H](C)/C=C/C=C/C=C/1C [Ridaforolimus (Deforolimus, MK-8669)]",0.0229
7,C=CCc1ccc(O)c(-c2cc(CC=C)ccc2O)c1 [Magnolol],0.00494
8,Oc1c(Br)cc(Br)c2cccnc12 [Broxyquinoline],0.375
9,CC(C)(CO)c1cc2cc(NC(=O)C3(c4ccc5c(c4)OC(F)(F)O5)CC3)c(F)cc2n1C[C@@H](O)CO,0.00576
10,CC(C)[C@H]1C(=O)N[C@@H](CCCNC(=N)N)C(=O)NCC(=O)N[C@@H](CC(=O)O)C(=O)N[C@H](Cc2ccccc2)C(=O)N1C [Cilengitide],0.0097
11,COc1cc(NC(C)CCCN)c2ncccc2c1 (stereo not drawn) [Primaquine Diphosphate],0.00577
12,CN1CCC[C@@H]1CCO[C@](C)(c1ccccc1)c1ccc(Cl)cc1 [Clemastine Fumarate],0.0125
13,CC(C)COc1ccc(CNC(=O)N(Cc2ccc(F)cc2)C2CCN(C)CC2)cc1 [Pimavanserin],0.00382
14,CN(C)CCOc1ccc(/C(=C(/CCCl)c2ccccc2)c2ccccc2)cc1 [Toremifene Citrate],0.018
15,CC(C)C[C@H](NC(=O)CNC(=O)c1cc(Cl)ccc1Cl)B1OC(=O)CC(CC(=O)O)(C(=O)O)O1 (stereo partly drawn),0.0204
16,CN1CCN(CCCN2c3ccccc3Sc3ccc(Cl)cc32)CC1 [Prochlorperazine],0.00459
17,O=C(NC1CCN(CCCCC2(C(=O)NCC(F)(F)F)c3ccccc3-c3ccccc32)CC1)c1ccccc1-c1ccc(C(F)(F)F)cc1 [Lomitapide],0.00381
18,CC(CN1c2ccccc2Sc2ccccc21)N(C)C (stereo not drawn) [Promethazine HCl],0.464
